Tested on: cough with an aerosol administration of citric acid
Experiment: Antitussive activity, cough induced by citric acid aerosol (method of Boura)
Settings: rabbit, 50 mg/kg i.p. immediately before citric acid aerosol, cough strokes counted for 10 minutes

Structure (SMILES): COc1ccc2c3c1O[C@H]1[C@@H](O)C=C[C@H]4[C@@H](C2)N(C)CC[C@@]341 [CODEINE, codeine, reference compound]
- % INHIBITION OF COUGH STROKES IN COMPARISON WITH BASAL VALUES: 79.5%

Structure (SMILES): Cc1cccnc1NC(=O)C1(c2ccccc2)CCCC1 [MR 549, 2-[(1-phenyl)cyclopentyl-carbonyl]-amino-3-methylpyridine]
- % INHIBITION OF COUGH STROKES IN COMPARISON WITH BASAL VALUES: 63.5%
